# According to the supplement of paper PMC8183993:
# Where “and” joins values, the source holds several entries; their conditions need not be identical. Equal values may be shown once. Where a name gives a salt, the structure may show the parent alone. ± gives the standard deviation of the averaged measurements. The full ranking holds about 3,100 compounds; the median of “mean cytoplasmic OPP incorporation (global translation) relative to DMSO” is about 100, and the lowest 2% start at about 56. This is one part of the list.
# Test system: U2OS
# Test: mean cytoplasmic OPP incorporation (global translation) relative to DMSO (% of DMSO); higher = more protein synthesis
# Conditions: 10 µM; 24 h
# Protocol: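 Primary image-based screen in U2OS cells: compounds at 10 uM for 24 h, then a 1 h o-propargyl-puromycin (OPP) pulse, click labelling, and high-throughput microscopy. Mean cytoplasmic OPP intensity and nuclei count were normalised to DMSO wells within each plate (DMSO = 100) and averaged over triplicate plates.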
row,Compound,mean cytoplasmic OPP incorporation
1,NC(=O)c1ncn([C@@H]2O[C@H](CO)[C@@H](O)[C@H]2O)n1 [Ribavirin (Copegus)],98.1
2,NC(=O)c1ncn([C@@H]2O[C@H](CO)[C@@H](O)[C@H]2O)n1 [Ribavirin],106
3,CCC(CC)(CC(=O)Nc1cccc(/C=C/c2nc(C3CCC3)cs2)c1)C(=O)O [Cinalukast],96.3
4,CCOC(=O)[C@H](CCc1ccccc1)N[C@@H](C)C(=O)N1[C@H](C(=O)O)C[C@@H]2CCC[C@@H]21 [Ramipril (Altace)],108
5,CCOC(=O)[C@H](CCc1ccccc1)N[C@@H](C)C(=O)N1[C@H](C(=O)O)C[C@@H]2CCC[C@@H]21 [Ramipril],105
6,CCOc1ccc2c(c1)C(C)=CC(C)(C)N2 [Ethoxyquin],107 ± 6.1
7,CNC(=O)[C@@H](Cc1ccccc1)N(C)C(=O)[C@@H](Cc1ccc2ccccc2c1)N(C)C(=O)/C=C/CC(C)(C)N [Tabimorelin],99.8
8,NS(=O)(=O)c1cc2c(cc1Cl)N=CNS2(=O)=O [Chlorothiazide],99.5
9,CN[C@H](CC(C)C)C(=O)N[C@H]1C(=O)N[C@@H](CC(N)=O)C(=O)N[C@H]2C(=O)N[C@H]3C(=O)N[C@H](C(=O)N[C@H](C(=O)O)c4cc(O)cc(O)c4-c4cc3ccc4O)[C@H](O)c3ccc(c(Cl)c3)Oc3cc2cc(c3O[C@@H]2O[C@H](CO)[C@@H](O)[C@H](O)[C@H]2O[C@H]2C[C@](C)(N)[C@H](O)[C@H](C)O2)Oc2ccc(cc2Cl)[C@H]1O [Vancomycin HCl (Vancocin)],101
10,CN[C@H](CC(C)C)C(=O)N[C@H]1C(=O)N[C@@H](CC(N)=O)C(=O)N[C@H]2C(=O)N[C@H]3C(=O)N[C@H](C(=O)N[C@H](C(=O)O)c4cc(O)cc(O)c4-c4cc3ccc4O)[C@H](O)c3ccc(c(Cl)c3)Oc3cc2cc(c3O[C@@H]2O[C@H](CO)[C@@H](O)[C@H](O)[C@H]2O[C@H]2C[C@](C)(N)[C@H](O)[C@H](C)O2)Oc2ccc(cc2Cl)[C@H]1O [Vancomycin hydrochloride],99.3
11,O=c1c(O)c(-c2ccc(O)c(O)c2)oc2cc(O)ccc12 [Fisetin (Fustel)],100
12,COc1cc2ncnc(Oc3cccc(NC(=O)Nc4cc(C(C)(C)C(F)(F)F)on4)c3)c2cc1OC,108 ± 2.6
13,CNS(=O)(=O)Cc1ccc2[nH]cc(CCN(C)C)c2c1 [Sumatriptan succinate],100 ± 1.9
14,NCC(=O)Nc1ccc(-n2nc(C(F)(F)F)cc2-c2ccc3c(ccc4ccccc43)c2)cc1,102 ± 25
15,COc1ccc(-c2nc3cc(C4=NNC(=O)CC4C)ccc3[nH]2)cc1 (configuration not stated) [Pimobendan (Vetmedin)],114
16,O=C(O)C(=O)O.[NH-]C1CCCCC1[NH-].[Pt+2] (configuration not stated) [Oxaliplatin (Eloxatin)],90.4
17,CCc1cncnc1N1CCN(Cc2nc3ccc(C(F)(F)F)cc3[nH]2)CC1,104.3 ± 0.75
18,CC1=C(C(=O)OC(C)C)C(c2cccc([N+](=O)[O-])c2)C(C(=O)OC2CN(C(c3ccccc3)c3ccccc3)C2)=C(N)N1 (configuration not stated) [Azelnidipine],106
19,"CCS(=O)(=O)N(C)[C@H]1c2cc(C#N)ccc2OC(C)(C)[C@@H]1O [(-)-[3R,4S]-Chromanol 293B]",98.1
20,Cc1cc(C2CCCCC2)n(O)c(=O)c1 [Ciclopirox ethanolamine],93.3 ± 8.5
21,COc1cc(C(=O)NS(=O)(=O)c2ccccc2C)ccc1Cc1cn(C)c2ccc(NC(=O)OC3CCCC3)cc12 [Zafirlukast],112
22,CCOc1cc([C@@H](CS(C)(=O)=O)N2C(=O)c3cccc(NC(C)=O)c3C2=O)ccc1OC,96.7
23,CCn1nnc2c(N3CCOCC3)nc(-c3ccc(NC(=O)Nc4ccc(C(=O)N5CCN(C)CC5)cc4)cc3)nc21,67.6
24,NS(=O)(=O)c1cc(C(=O)O)c(NCc2ccco2)cc1Cl [Furosemide],93.9

row,Compound,mean cytoplasmic OPP incorporation
1,O=C(O)c1ccccc1Nc1ccccc1 [N-phenylanthranilic acid],100
2,CC[C@H](C)[C@H](N)C1=N[C@H](C(=O)N[C@@H](CC(C)C)C(=O)N[C@H](CCC(=O)[O-])C(=O)N[C@H](C(=O)N[C@H]2CCCCNC(=O)[C@H](CC(N)=O)NC(=O)[C@@H](CC(=O)[O-])NC(=O)[C@H](Cc3cnc[nH]3)NC(=O)[C@@H](Cc3ccccc3)NC(=O)[C@H]([C@@H](C)CC)NC(=O)[C@@H](CCCN)NC2=O)[C@@H](C)CC)CS1.[Zn+2] [Bacitracin zinc],107
3,C[C@@H]1NC(=O)NC1=O [Methylhydantoin-5-(L)],105
4,CCCCCCCCCCCCCCCC(=O)NCCO [Palmitoylethanolamide],97.8
5,CO[C@@H](C(=O)N1Cc2[nH]nc(NC(=O)c3ccc(N4CCN(C)CC4)cc3)c2C1)c1ccccc1,88.8
6,CN1CCN(C2=Nc3cc(Cl)ccc3Nc3ccccc32)CC1 [Clozapine],101 ± 2.4
7,NC12CC3CC(CC(C3)C1)C2 [Adamantamine fumarate],104
8,CC1(C2CCCC2)Cc2cc(OCC(=O)O)c(Cl)c(Cl)c2C1=O (configuration not stated),98.1
9,CO[C@H]1O[C@@H]2O[C@@]3(C)CC[C@H]4[C@H](C)CC[C@@H]([C@H]1C)[C@@]24OO3 [Artemether (SM-224)],104
10,Cc1[nH]c2ccccc2c1C(Nc1ccccn1)c1ccc(Cl)cc1 (configuration not stated),113
11,Cc1cc(=O)n(-c2ccccc2)n1C [Antipyrine],106
12,CC(C)[C@@H](O)CC[C@@H](C)[C@H]1CC[C@H]2[C@@H]3CC=C4C[C@@H](O)CC[C@]4(C)[C@H]3CC[C@]12C [24(S)-Hydroxycholesterol],104
13,Clc1ccc(COC(Cn2ccnc2)c2ccc(Cl)cc2Cl)c(Cl)c1 (configuration not stated) [Miconazole],101
14,CC1CCc2c(N3CCC(O)CC3)c(F)cc3c(=O)c(C(=O)O)cn1c23 (configuration not stated) [Nadifloxacin],100
15,CCCc1c(OCCCCc2nnn[nH]2)ccc(C(C)=O)c1O,110
16,Cc1ccc(-c2ncc(Cl)cc2-c2ccc(S(C)(=O)=O)cc2)cn1 [Etoricoxib],95.8
17,CC1(C)C(=O)NC2=C1C(=O)C(=O)c1ccccc12,59.6 and 42.6
18,CC(C)/N=c1\cc2n(-c3ccc(Cl)cc3)c3ccccc3nc-2cc1Nc1ccc(Cl)cc1 [Clofazimine],112
19,O=C1Cc2cc(CCN3CCN(c4nsc5ccccc45)CC3)c(Cl)cc2N1 [Ziprasidone  Hydrochloride],109
20,CCN[C@H]1C[C@H](C)S(=O)(=O)c2sc(S(N)(=O)=O)cc21 [Dorzolamide hydrochloride],95.4
21,CCN[C@H]1C[C@H](C)S(=O)(=O)c2sc(S(N)(=O)=O)cc21 [Dorzolamide HCl],90.2
22,C[N+](C)(C)CCCCCNCC12CC3CC(CC(C3)C1)C2,105
23,CCC(C)[C@H](NS(=O)(=O)c1cccc2ccccc12)C(=O)N[C@H](C=O)Cc1c[nH]c2ccccc12 (some centres not stated),102
24,CC(=O)N(O)CCCCCNC(=O)CCC(=O)N(O)CCCCCNC(=O)CCC(=O)N(O)CCCCCN [Deferoxamine mesylate],90.6

row,Compound,mean cytoplasmic OPP incorporation
1,NCCCCNCCCN [Spermidine trihydrochloride],101
2,NCCCCNCCCN [Spermidine],101
3,Nc1ncn([C@H]2C[C@H](O)[C@@H](CO)O2)c(=O)n1 [Decitabine],97.5
4,CC(C)(C(=O)c1cccnc1)c1cccnc1 [Metyrapone],109
5,O=C(Cc1ccc(-c2ccc(OCCN3CCOCC3)cc2)cn1)NCc1ccccc1,90.8
6,CN1CC(=O)NC1=N [Creatinine],102
7,CC(=O)Nc1ccc(NC(=S)NC(=O)c2ccc(C(C)(C)C)cc2)cc1 [Tenovin-1],76.3
8,O=c1cc(-c2ccc(O)c(O)c2)oc2cc(O)cc(O)c12 [Luteolin],92
9,CCOC(=O)[C@]12CC1/C(=N\O)c1ccccc1O2 (some centres not stated),95.4
10,CN1CCN(C2=Cc3ccccc3Oc3ccc(Cl)cc32)CC1,106
11,C[C@H](NC(=O)[C@@H](O)c1cc(F)cc(F)c1)C(=O)N[C@@H]1C(=O)N(C)c2ccccc2-c2ccccc21,108
12,CN1C2=CC(=O)/C(=N\NC(N)=O)C=C2CC1S(=O)(=O)O (configuration not stated) [Carbazochrome sodium sulfonate],116
13,CSCC[C@H](NC=O)C(=O)N[C@@H](CC(=O)O)C(=O)NCC(=O)N[C@@H](CS)C(=O)N[C@@H](CCC(=O)O)C(=O)N[C@@H](CC(C)C)C(=O)O,103
14,CCC(Cc1c(I)cc(I)c(N)c1I)C(=O)O (configuration not stated) [Iopanoic acid],107
15,CCC(NC(C)C)C(O)c1ccc(O)c(O)c1 (configuration not stated) [Isoetharine mesylate salt],97.6
16,CN1CCc2cccc3c2[C@H]1Cc1ccc(O)c(O)c1-3 [(R)-(-)-Apomorphine hydrochloride],100
17,CN1CCc2cccc3c2[C@H]1Cc1ccc(O)c(O)c1-3 [R(-) Apomorphine hydrochloride hemihydrate],102
18,CC(=O)OCCNC(=O)c1cccnc1 [N-[2-(Acetoxy)ethyl]-3-pyridinecarboxamide],98.6
19,CNC(CC(=O)O)C(=O)O [NMDA (N-Methyl-D-aspartic acid)],93.1
20,O=c1cc(N2CCOCC2)oc2c1ccc1ccccc12,96.7
21,CCOC(=O)C(C)(C)Oc1ccc(Cl)cc1 [Clofibrate],93
22,CC(C)NC[C@H](O)COc1ccc(CC(N)=O)cc1 [(S)-(-)-Atenolol],104
23,CC(C)NC[C@H](O)COc1ccc(CC(N)=O)cc1 [S-(-)-Atenolol],100
24,CO[C@@]1(NC(=O)CSCC#N)C(=O)N2C(C(=O)O)=C(CSc3nnnn3C)CS[C@@H]21 [Cefmetazole sodium salt],105
